Entries after “also recorded” stand apart in the source; their conditions may differ. For part of its entries the source gives two or more results. This list holds those alone. No rule for the calls is given here. An entry can have further records. Values that stand side by side differ for a reason that is not stated; dose, time, organism, isomer or construct need not be as stated for each record. A tag in brackets gives the origin of a value. Letters count within one entry. Additions like (4×) give the number of equal values in this list.
Tested on: CCRIS mutagenicity, Ames/micronucleus/aberration tests
Assay: CCRIS mutagenicity studies
[1] = End Point: IN VITRO CHROMOSOMAL ABERRATIONS, Test System: CHL CELLS, Metabolic Activation: NONE

## c1ccc2n[nH]nc2c1
Test System: E. COLI, Strain/Indicator: WP2 UVRA, Metabolic Activation: HAMSTER, LIVER, S-9, AROCLOR 1254, Method: STANDARD PLATE
  mutagenic call: inactive; negative [0.3 to 333.3 µg/plate] and active; positive [10 to 3333.3 µg/plate]
Test System: E. COLI, Strain/Indicator: WP2 UVRA, Metabolic Activation: HAMSTER, LIVER, S-9, Method: STANDARD PLATE
  mutagenic call: inactive; negative [0.3 to 333.3 µg/plate] and active; positive [1 to 10000 µg/plate]
Test System: E. COLI, Strain/Indicator: WP2 UVRA, Metabolic Activation: MOUSE, LIVER, S-9, Method: STANDARD PLATE
  mutagenic call: inactive; negative [0.3 to 333.3 µg/plate] and active; positive [1 to 1000 µg/plate] and active; positive [3.3 to 3333.3 µg/plate]
Test System: E. COLI, Strain/Indicator: WP2 UVRA, Metabolic Activation: NONE, Method: STANDARD PLATE
  mutagenic call: inactive; negative [0.3 to 3333.3 µg/plate] and active; positive [1 to 10000 µg/plate]
Test System: E. COLI, Strain/Indicator: WP2 UVRA, Metabolic Activation: RAT, LIVER, S-9, AROCLOR 1254, Method: STANDARD PLATE
  mutagenic call: inactive; negative [0.3 to 333.3 µg/plate] and active; positive [1 to 10000 µg/plate]
Test System: E. COLI, Strain/Indicator: WP2 UVRA, Metabolic Activation: RAT, LIVER, S-9, Method: STANDARD PLATE
  mutagenic call: inactive; negative [0.3 to 333.3 µg/plate] and active; positive [1 to 10000 µg/plate] and active; positive [3.3 to 3333.3 µg/plate]

## COc1cc2c(c3oc(=O)c4c(c13)CCC4=O)[C@@H]1C=CO[C@@H]1O2
Test System: AMES SALMONELLA TYPHIMURIUM, Strain/Indicator: TA100, Metabolic Activation: NONE, Method: MICROSUSPENSION
  mutagenic call: inactive; negative and active; positive
Test System: AMES SALMONELLA TYPHIMURIUM, Strain/Indicator: TA100, Metabolic Activation: NONE, Method: PREINCUBATION
  mutagenic call: active; positive (2×) and inactive; negative
Test System: AMES SALMONELLA TYPHIMURIUM, Strain/Indicator: TA100, Metabolic Activation: NONE, Method: STANDARD PLATE
  mutagenic call: active; positive [study A] and active; positive [study B] and inactive; negative [study C]

## CCOC(=O)CC(SP(=O)(OC)OC)C(=O)OCC (stereo not drawn)
End Point: IN VITRO CHROMOSOMAL ABERRATIONS, Test System: CHO CELLS, Metabolic Activation: RAT, LIVER, S-9, AROCLOR 1254
  mutagenic call: inactive; negative; also recorded: inactive; negative; previous trial yielded positive result at 3010 ug/ml but no dose-respo

## NCc1ccc(CN)cc1
Test System: AMES SALMONELLA TYPHIMURIUM, Strain/Indicator: TA104, Metabolic Activation: NONE, Method: PREINCUBATION
  mutagenic call: inactive; negative (2×) and active; positive
Test System: AMES SALMONELLA TYPHIMURIUM, Strain/Indicator: TA104, Metabolic Activation: RAT, LIVER, S-9, PHENOBARBITAL AND BETA-NAPHTHOFLAVONE, Method: PREINCUBATION
  mutagenic call: active; positive (2×) and inactive; negative

## N#Cc1cc([N+](=O)[O-])ccc1N
[1]
  mutagenic call: active; positive (structural changes) and inactive; negative

## C=CCCl
[1]
  mutagenic call: active; positive (structural changes); authors report equivocal results for ploidy chang (2×); also recorded: active; positive (structural and ploidy changes)
Test System: Ames Salmonella typhimurium, Strain/Indicator: TA98, Metabolic Activation: None, Method: Preincubation
  mutagenic call: inactive; negative; also recorded: active; positive; also recorded: inactive; negative. retest results differed from initial test results
Test System: Ames Salmonella typhimurium, Strain/Indicator: TA100, Metabolic Activation: None, Method: Preincubation
  mutagenic call: inactive; negative and active; positive
Test System: Ames Salmonella typhimurium, Strain/Indicator: TA1535, Metabolic Activation: None, Method: Preincubation
  mutagenic call: active; positive (*only at dose where growth inhibition observed); also recorded: active; positive
Test System: Ames Salmonella typhimurium, Strain/Indicator: TA1535, Metabolic Activation: Rat, Liver, S9, Sodium phenobarbital and 5,6-benzoflavone (10%), Method: Preincubation
  mutagenic call: inactive; negative; also recorded: active; positive (weak response); also recorded: inactive; negative. retest results differed from initial test results
Test System: E. coli, Strain/Indicator: WP2uvrA/pKM101, Metabolic Activation: None, Method: Preincubation
  mutagenic call: active; positive and active; positive (results of two tests)
Test System: E. coli, Strain/Indicator: WP2uvrA/pKM101, Metabolic Activation: Rat, Liver, S9, Sodium phenobarbital and 5,6-benzoflavone (10%), Method: Preincubation
  mutagenic call: active; positive and active; positive (results of two tests)

## C[Si](C)(C)Cl
Test System: MOUSE LYMPHOMA, Strain/Indicator: L5178Y (TK+/TK-), Metabolic Activation: NONE, Method: SUSPENSION/PLATE
  mutagenic call: inactive; negative [study A]; also recorded: inactive; negative. reevaluation of results: negative [study B]

## O=c1c(O)c(-c2ccc(O)c(O)c2)oc2cc(O)cc(O)c12
Test System: AMES SALMONELLA TYPHIMURIUM, Strain/Indicator: TA97, Metabolic Activation: RAT, LIVER, S9, AROCLOR 1254, Method: STANDARD PLATE
  mutagenic call: inactive; negative [study A] and active; positive [study B]
Test System: AMES SALMONELLA TYPHIMURIUM, Strain/Indicator: TA102, Metabolic Activation: NONE, Method: STANDARD PLATE
  mutagenic call: active; positive [study A] and inactive; negative [study B]

From PubChem BioAssay AID1259407 (Chemical Carcinogenesis Research Information System (CCRIS), 2018)
